The record followed here is the supplement of paper PMC4967469.

Usually IC50 stands for the point on the concentration scale where inhibition reaches its midpoint.

Holding throughout (assay): Viability of human cancer cell lines after 72 h of drug (GDSC screen)
Compound in one assay: Cc1cccc(Nc2nc(-c3ccncc3)cs2)c1 [STF-62247]
To be noted: top dose 10.24 µM; top dose inferred. Here is the method:
(§1)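 Human cancer cell lines in 384-well plates, medium with 10% serum, drug for 72 h over a 256-fold dose range (nine 2-fold or five 4-fold steps up to the top dose). Adherent lines were fixed and stained with the nucleic acid dye Syto60, suspension lines read with resazurin; signal relative to control wells, capped at 0 and 100%. One two-parameter sigmoid per drug and line, fitted in a mixed model over all curves with the slope shared within a line.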

Compound in the next assay: COC1=CC(c2cc3ccccc3[nH]2)=N/C1=C\c1[nH]c(C)cc1C [Obatoclax mesylate]
As to conditions: top dose 16 µM. Here is the method:
as §1

Compound in a further assay: CC(C)C[C@H](NC(=O)[C@H](Cc1ccccc1)NC(=O)c1cnccn1)B(O)O [Bortezomib]
To be noted: top dose 0.02 µM. Here is the method: as §1

Compound in a further assay: Cc1cnc(CNC(=O)c2c(=O)c3ccc(N4CCCN(C)CC4)nc3n3c2sc2ccccc23)cn1 [CX-5461]
To be noted: top dose 10.24 µM; top dose inferred. Here is the method: as §1

Compound in the next assay: CC(=O)O[C@H]1C(=O)[C@@]2(C)[C@H]([C@H](OC(=O)c3ccccc3)[C@]3(O)C[C@H](OC(=O)[C@H](O)[C@@H](NC(=O)c4ccccc4)c4ccccc4)C(C)=C1C3(C)C)[C@]1(OC(C)=O)CO[C@@H]1C[C@@H]2O [Paclitaxel]
To be noted: top dose 0.1024 µM. The protocol: as §1

Compound in a further assay: COCC(=O)NC/C=C/c1ccc2ncnc(Nc3ccc(Oc4ccc(C)nc4)c(C)c3)c2c1 [CP724714]
As to conditions: top dose 10.24 µM; top dose inferred. The protocol:
as §1

The IC50 comes from the fitted curve, where viability falls to half of the control; a limit (>, <) means that the fit lies beyond the doses tested. AUC sums up the same curve from the lowest dose to the 256-fold higher top dose; it is 1 without any effect and falls as sensitivity rises. For part of these data: Any top dose called inferred comes from the curve model; the source does not state it. A value given as a limit tells only on which side of the number the result lay.

With “NCI-H1395 (lung adenocarcinoma, adherent)”, the AUC was determined as 0.969 with STF-62247; 0.825 with Obatoclax mesylate; 0.909 with Bortezomib; 0.936 with CX-5461; 0.947 with Paclitaxel; 0.972 in the assay with CP724714. Further, the IC50 with STF-62247 is above 10200 nM; in the assay with Obatoclax mesylate it was 14200 nM; in the assay with Bortezomib, above 20 nM; with CX-5461, above 10200 nM; with Paclitaxel, above 102 nM; in the assay with CP724714, above 10200 nM.

As to “NCI-H1436 (small cell lung carcinoma, suspension)”, the AUC with STF-62247 was found to be 0.985; in the assay with Obatoclax mesylate, 0.554; in the assay with Bortezomib, 0.87; with CX-5461, 0.868; with Paclitaxel it was 0.617; in the assay with CP724714, 0.984. In addition, the IC50 with STF-62247 is above 10200 nM; in the assay with Obatoclax mesylate, 1440 nM; with Bortezomib it was above 20 nM; with CX-5461 it was above 10200 nM; in the assay with Paclitaxel it was 14.1 nM; with CP724714, above 10200 nM.

“NCI-H1581 (large cell lung carcinoma, semi-adherent)”: the AUC in the assay with STF-62247 was 0.98; with Obatoclax mesylate, 0.625; with Bortezomib it was 0.758; with CX-5461 it was 0.99; with Paclitaxel, 0.797; with CP724714, 0.965. Also, the IC50 with STF-62247 is above 10200 nM; with Obatoclax mesylate, 2150 nM; with Bortezomib, 6.45 nM; with CX-5461, above 10200 nM; in the assay with Paclitaxel it was 44 nM; with CP724714, above 10200 nM.

For the cell line “NCI-H1648 (lung adenocarcinoma, adherent)”, the AUC with STF-62247 amounted to 0.972; in the assay with Obatoclax mesylate it was 0.209; in the assay with Bortezomib, 0.698; with CX-5461 it was 0.752; with Paclitaxel, 0.463; with CP724714, 0.943. Moreover, the 50% inhibitory concentration (IC50) was above 10200 nM in the assay with STF-62247; 131 nM in the assay with Obatoclax mesylate; 4.67 nM with Bortezomib; 3590 nM with CX-5461; 5.05 nM with Paclitaxel; above 10200 nM with CP724714.

As to “NCI-H1666 (lung adenocarcinoma, semi-adherent)”, the AUC with STF-62247 was found to be 0.987; with Obatoclax mesylate, 0.583; with Bortezomib, 0.965; with CX-5461, 0.979; with Paclitaxel, 0.987; in the assay with CP724714, 0.987. Also, the IC50 with STF-62247 was above 10200 nM; with Obatoclax mesylate it was 1730 nM; with Bortezomib, above 20 nM; with CX-5461, above 10200 nM; in the assay with Paclitaxel it was above 102 nM; in the assay with CP724714 it was above 10200 nM.

For “NCI-H1694 (small cell lung carcinoma, suspension)”, the AUC with STF-62247 was 0.971; in the assay with Obatoclax mesylate it was 0.548; with Bortezomib it was 0.786; with CX-5461, 0.847; in the assay with Paclitaxel, 0.902; in the assay with CP724714, 0.969. Also, the IC50 with STF-62247 is above 10200 nM; with Obatoclax mesylate, 1350 nM; with Bortezomib, 8.59 nM; with CX-5461, 7510 nM; in the assay with Paclitaxel, above 102 nM; with CP724714 it was above 10200 nM.

In the case of “NCI-H1770 (non-small cell lung carcinoma, suspension)”, the AUC was found to be 0.992 with STF-62247; 0.144 with Obatoclax mesylate; 0.97 with Bortezomib; 0.992 with CX-5461; 0.992 in the assay with Paclitaxel; 0.987 with CP724714. Besides, the IC50 with STF-62247 is above 10200 nM; with Obatoclax mesylate, 95.7 nM; in the assay with Bortezomib, above 20 nM; in the assay with CX-5461 it was above 10200 nM; with Paclitaxel, above 102 nM; with CP724714, above 10200 nM.

Consider “NCI-H1836 (small cell lung carcinoma, suspension)”, for which the AUC stood at 0.987 in the assay with STF-62247; 0.836 with Obatoclax mesylate; 0.852 in the assay with Bortezomib; 0.858 with CX-5461; 0.809 with Paclitaxel; 0.985 in the assay with CP724714. Moreover, the IC50 with STF-62247 is above 10200 nM; with Obatoclax mesylate, 12200 nM; with Bortezomib, 18 nM; with CX-5461, 9830 nM; with Paclitaxel, 60.2 nM; with CP724714, above 10200 nM.

Regarding “NCI-H1838 (lung adenocarcinoma, adherent)”, the AUC in the assay with STF-62247 worked out at 0.979; with Obatoclax mesylate, 0.954; with Bortezomib, 0.985; in the assay with CX-5461, 0.983; with Paclitaxel it was 0.96; with CP724714, 0.986. Besides, the IC50 with STF-62247 is above 10200 nM; with Obatoclax mesylate it was above 16000 nM; with Bortezomib, above 20 nM; in the assay with CX-5461 it was above 10200 nM; in the assay with Paclitaxel, above 102 nM; with CP724714 it was above 10200 nM.

On to “NCI-H1869 (lung squamous cell carcinoma, adherent)”, for which the AUC with STF-62247 was found to be 0.983; in the assay with Obatoclax mesylate, 0.312; in the assay with Bortezomib, 0.696; with CX-5461 it was 0.959; with Paclitaxel, 0.872; with CP724714 it was 0.96. Moreover, the IC50 in the assay with STF-62247 is above 10200 nM; in the assay with Obatoclax mesylate, 275 nM; with Bortezomib, 4.79 nM; with CX-5461 it was above 10200 nM; with Paclitaxel, above 102 nM; with CP724714 it was above 10200 nM.

As to “NCI-H1975 (lung adenocarcinoma, adherent)”, the AUC came out at 0.981 with STF-62247; 0.382 with Obatoclax mesylate; 0.254 in the assay with Bortezomib; 0.782 in the assay with CX-5461; 0.598 in the assay with Paclitaxel; 0.961 in the assay with CP724714. The IC50 is above 10200 nM with STF-62247; 450 nM with Obatoclax mesylate; 0.218 nM in the assay with Bortezomib; 4950 nM with CX-5461; 12.4 nM with Paclitaxel; above 10200 nM with CP724714.
